Measured values as given in paper PMC5484543.
Numbering of substitutions follows the chain as printed. No constants are given. Whether binding was seen depends on the method and setting. Binding seen in cells or lysates may run through a third protein. Some entries that bind do so weakly or less than the wild type. Where a sequence is shown, tags or fusion partners need not be part of it.

Amino acid sequences for entries named in this document (tags omitted).
UniProt P11142: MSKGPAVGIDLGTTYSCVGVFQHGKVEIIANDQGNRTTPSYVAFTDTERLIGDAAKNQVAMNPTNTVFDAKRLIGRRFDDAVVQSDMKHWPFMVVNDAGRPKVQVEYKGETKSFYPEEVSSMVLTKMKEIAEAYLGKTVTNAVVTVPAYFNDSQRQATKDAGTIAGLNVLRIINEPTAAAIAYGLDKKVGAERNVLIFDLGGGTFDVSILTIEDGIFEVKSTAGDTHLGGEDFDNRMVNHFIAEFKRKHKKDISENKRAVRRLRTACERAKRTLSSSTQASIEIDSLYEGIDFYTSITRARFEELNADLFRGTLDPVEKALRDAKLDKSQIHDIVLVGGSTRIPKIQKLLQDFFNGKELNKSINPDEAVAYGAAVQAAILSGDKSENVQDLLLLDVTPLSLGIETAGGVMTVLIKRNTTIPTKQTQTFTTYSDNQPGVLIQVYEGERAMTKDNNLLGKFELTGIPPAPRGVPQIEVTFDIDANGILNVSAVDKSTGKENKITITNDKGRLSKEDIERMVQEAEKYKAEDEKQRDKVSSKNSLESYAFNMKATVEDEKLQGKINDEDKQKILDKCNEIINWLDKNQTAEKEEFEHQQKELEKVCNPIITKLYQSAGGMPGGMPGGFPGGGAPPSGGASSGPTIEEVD

T1: 3xFLAG-B12 (UniProt Q9NXW2)
T1 sequence: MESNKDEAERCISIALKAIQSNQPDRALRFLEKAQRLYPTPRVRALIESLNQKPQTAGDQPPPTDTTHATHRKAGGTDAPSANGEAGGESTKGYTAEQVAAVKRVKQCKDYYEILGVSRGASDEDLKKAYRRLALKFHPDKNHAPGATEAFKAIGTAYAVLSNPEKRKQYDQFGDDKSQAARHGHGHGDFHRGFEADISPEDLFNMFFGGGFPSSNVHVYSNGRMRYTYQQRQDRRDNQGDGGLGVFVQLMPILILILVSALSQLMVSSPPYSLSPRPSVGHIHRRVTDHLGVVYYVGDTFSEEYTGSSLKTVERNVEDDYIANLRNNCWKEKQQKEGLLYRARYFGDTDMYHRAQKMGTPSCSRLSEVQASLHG

T2: 3xFLAG-B14 (UniProt Q8TBM8)
T2 sequence: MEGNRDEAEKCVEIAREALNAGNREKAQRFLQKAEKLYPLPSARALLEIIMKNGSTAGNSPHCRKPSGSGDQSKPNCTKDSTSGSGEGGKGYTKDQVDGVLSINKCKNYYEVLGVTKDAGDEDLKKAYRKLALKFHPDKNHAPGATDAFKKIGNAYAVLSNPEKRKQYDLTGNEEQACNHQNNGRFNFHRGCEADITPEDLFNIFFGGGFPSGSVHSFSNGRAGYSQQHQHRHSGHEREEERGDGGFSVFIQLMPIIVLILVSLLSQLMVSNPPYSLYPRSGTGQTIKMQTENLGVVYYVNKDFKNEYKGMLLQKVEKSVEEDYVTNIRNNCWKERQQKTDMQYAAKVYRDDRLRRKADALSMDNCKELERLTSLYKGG

T3: FLAG-B12 [1–355] (UniProt Q9NXW2)
T3 sequence: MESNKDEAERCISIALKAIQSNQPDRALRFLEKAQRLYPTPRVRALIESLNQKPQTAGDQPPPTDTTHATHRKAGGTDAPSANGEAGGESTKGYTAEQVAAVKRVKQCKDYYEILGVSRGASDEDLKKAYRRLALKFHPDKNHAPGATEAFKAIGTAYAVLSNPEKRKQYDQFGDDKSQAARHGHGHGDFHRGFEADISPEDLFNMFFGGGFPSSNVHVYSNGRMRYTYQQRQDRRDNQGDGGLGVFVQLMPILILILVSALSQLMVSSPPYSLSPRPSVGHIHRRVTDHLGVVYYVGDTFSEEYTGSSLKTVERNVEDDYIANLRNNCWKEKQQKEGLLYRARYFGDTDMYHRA

T4: FLAG-B12 [H138Q] (UniProt Q9NXW2)
T4 sequence: T1 sequence with H138Q

T5: FLAG-B12 [WT] (UniProt Q9NXW2)
T5 sequence: T1 sequence

B1: Erlin1 (endogenous) (protein, UniProt O75477 1-348)
chain: MNMTQARVLVAAVVGLVAVLLYASIHKIEEGHLAVYYRGGALLTSPSGPGYHIMLPFITTFRSVQTTLQTDEVKNVPCGTSGGVMIYIDRIEVVNMLAPYAVFDIVRNYTADYDKTLIFNKIHHELNQFCSAHTLQEVYIELFDQIDENLKQALQKDLNLMAPGLTIQAVRVTKPKIPEAIRRNFELMEAEKTKLLIAAQKQKVVEKEAETERKKAVIEAEKIAQVAKIRFQQKVMEKETEKRISEIEDAAFLAREKAKADAEYYAAHKYATSNKHKLTPEYLELKKYQAIASNSKIYFGSNIPNMFVDSSCALKYSDIRTGRESSLPSKEALEPSGENVIQNKESTG
B2: Erlin2 (endogenous) (protein, UniProt O94905 1-339)
chain: MAQLGAVVAVASSFFCASLFSAVHKIEEGHIGVYYRGGALLTSTSGPGFHLMLPFITSYKSVQTTLQTDEVKNVPCGTSGGVMIYFDRIEVVNFLVPNAVYDIVKNYTADYDKALIFNKIHHELNQFCSVHTLQEVYIELFDQIDENLKLALQQDLTSMAPGLVIQAVRVTKPNIPEAIRRNYELMESEKTKLLIAAQKQKVVEKEAETERKKALIEAEKVAQVAEITYGQKVMEKETEKKISEIEDAAFLAREKAKADAECYTAMKIAEANKLKLTPEYLQLMKYKAIASNSKIYFGKDIPNMFMDSAGSVSKQFEGLADKLSFGLEDEPLETATKEN

Experiments:
3xFLAG-B12 = target: T1, 3xFLAG-B12; test: co-IP; extracts of cells stably expressing 3xFLAG-B12 or 3xFLAG-B14 and parental cells; FLAG antibody-conjugated agarose beads; eluted with SDS sample buffer; immunoblot for endogenous proteins
3xFLAG-B14 = target: T2, 3xFLAG-B14; test: as above
FLAG-B12 [1–355] = target: T3, FLAG-B12 [1–355]; test: co-IP; HEK 293T transfected with FLAG-tagged constructs; lysis in 50 mM Hepes pH 7.5, 150 mM NaCl, 1% Triton X-100; FLAG antibody-conjugated agarose beads, 4°C, 2 h; immunoblot for endogenous Erlin1 and Erlin2
FLAG-B12 [H138Q] = target: T4, FLAG-B12 [H138Q]; test: as above
FLAG-B12 [WT] = target: T5, FLAG-B12 [WT]; test: as above

| Molecule | binding (3xFLAG-B12) | binding (3xFLAG-B14) | binding (FLAG-B12 [1–355]) | binding (FLAG-B12 [H138Q]) | binding (FLAG-B12 [WT]) |
| --- | --- | --- | --- | --- | --- |
| Hsc70 (from UniProt P11142 1-646) | binds | binds |  |  |  |
| B1 | binds | no binding | no binding | binds | binds |
| B2 | binds | no binding | no binding | binds | binds |
